From the supplement of paper PMC11417369
The list shows a part of the results.

Each sequence was assayed on PF3D7_0420300 AP2 domain 1 (GST-tagged) (assay: gcPBM binding intensity (ln(normalized median fluorescence intensity)); higher = stronger DNA binding).
Method in brief: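 Binding intensity values are the highest Masliner-normalised natural-log median intensity among replicate spots of either probe orientation. The binding step lasted 1 h in 1× PBS with 1% milk, 0.2 mg/ml BSA, 0.5% salmon testes DNA and 0.03% Triton X-100, using GST-tagged P. falciparum DNA-binding domains expressed in E. coli on an Agilent 4 × 180k array of primer-extended double-stranded 36-bp intergenic genomic probes plus negative controls. Alexa488 anti-GST antibody and a 488 nm scan detected bound protein.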

Sequence	gcPBM binding intensity (ln)
AAAAAAAAAAAAAGTACACACATACCTATAAATATA [CACACA_site6937]	9.8
TTTACCTCTTCAATGGTGCAATAACTCAAAAATTTG	8.97
TTTTTATTTTATTAGTGTACTTTATATTTAACAATA [XGTACX_site1175]	9.36
ATAAATAAAATAAAAGCACACAAAATGTAAATAATT [CACACA_site8895]	9.84
TATATATTTATAAATGAACACACACCCAATTTGAAT [CACACA_site9113]	9.85
TTTATATACATTTTAAATTTTAATGTAACCCATGGG [TGCATGCA_negctrl_site115]	8.75
TTTATTTTTATAAGAGCATGCACTGTTTAAAATGGT [TGCATGCA_site628]	8.98
TATATACCTATATACACACACATATATAAATAAATA [CACACA_site7341]	9.86
TATTTCTGATTACATACACACATATACAGATATGAC [CACACA_site7490]	9.48
TTGTAAAACTTATAATGTACATTTTTTTTTTTTTTT [XGTACX_site5398]	9.06
AGGGACATCTATATCACACACAAAAATTAGTCCCTT [CACACA_site7330]	9.5
TTTTTTTTTTTTTGCACACACATTGAATTATTATTC [CACACA_site197]	9.66
ATAAGAAAATATAAAATGCACACTATAAATTGTATA [CACACA_site143]	9.52
TATATAGAGAGATATGCACACTGTATGAATGCCCCC [CACACA_site5476]	10
TATACCTATATACATACATGCAAATATATATTCATA [TGCATGCA_site269]	9.21
ATATGTCACTTGTATACACACATATATATTTCAATC [CACACA_site3256]	9.72
TTACTTATAAATAAATATACAAAAATGTTATATATA [XGTACX_negctrl_site223]	8.85
CTGAAAAAAAAGCTTGCACACGTATTTGCTTTATGT [CACACA_site8427]	9.38
TTTTTTTTTTTTGAAGTGCATTACTTTTTTTGTATT [GTGCAC_site9811]	9.22

Sequence	gcPBM binding intensity (ln)
TTTTTTGTGTTTGGTACACACGTTATAAAAAATAAA [CACACA_site4866]	9.06
AGGAATATAAAGTGCACACATAATTTGGGGGCAAAA [CACACA_site258]	9.63
GAAAATAGCTAAAATACACACAATTAAAAATTATTA [CACACA_site3506]	9.39
AAAAAAAAAAATAAATAAATAAATAAATATATATAT [TGCATGCA_negctrl_site468]	9.24
TACATACATATATATACACACATATATAATATATAT [CACACA_site388]	9.5
TATATATACATATACACACATACGTACATACATATA [CACACA_site3585]	9.66
ATATTCATATATACTTCACACACATTTTATCATTCA [CACACA_site8784]	9.79
ATGAAAGTAAGACATGCATGGAATTTTTTTTATTAG [TGCATGCA_site348]	8.98
ATAATCCAACTTTGAGTGCGTGGTGTTTTTTTTTTC	9.53
TTTCTTTTTTTTTTTTTTTCTTTTTTTTTTTTTTTC [CACACA_negctrl_site1025]	8.9
GGAATATTTTATGAGTGTACATTTTTTTTTTTTTTT [XGTACX_site2370]	9.24
ATAAAATAAACATAAATAAACATAAATAAACAAAAA [CACACA_negctrl_site1270]	9.75
AGGTATATATACATATGTACGTATATATATATATAT [XGTACX_site5115]	9.52
TATAATACAACATGCACACATATATATGTGAATCTC [CACACA_site2490]	9.61
TTTAAAAATAAAAGTACACACATAAACATATTACAC [CACACA_site1428]	9.9
TTATATAAATTATTTACACACAAACATTTATACTTT [CACACA_site3449]	9.62
GGCGTATGTGTATATACACACCCACGTATATAAATA [CACACA_site7489]	9.35
TTTCTAATTTATATCACACACATATTTATATAGTAA [CACACA_site6813]	9.41
ATACTTTATTCGTTAGCACACAATTCAAGTTGATTC [CACACA_site1123]	9.42

Sequence	gcPBM binding intensity (ln)
TATTCCCTTCTTCCTTCTGTTTTTGATATTAAAGGG [GTGCAC_negctrl_site270]	9.32
AAGATACCCCAAAATTGTACATATTAAAATAATAAA [XGTACX_site3603]	9.24
ATCCTCTTTACAATATGTACATAAATATATATTTAT [XGTACX_site8001]	9.4
TATATATTTTTATTATGTACATATTAACAATGTGTT [XGTACX_site879]	9.2
TATTTATTTATTTATTTATTTATTTATTTATATTTA [CACACA_negctrl_site398]	8.96
TATATATATAAATACACACACATATATATATATATA [CACACA_site4867]	9.45
TAAAATATAAAACACACACACATATATATATATATT [CACACA_site224]	10
AAGTAAAATAAGTATACACACATAAATATATATATA [CACACA_site685]	9.66
TATAATAATACGTATTGTACTATTAGGTTAATTCGT [XGTACX_site264]	9.22
TTTTCTTGTAAATTACGTACGAATGTGTAGAGAAAT [XGTACX_site1339]	9.21
ACTTGTAAGAAACACACACACACACCCATATATATA [CACACA_site796]	10.4
TCTATAAAGGAATATACACACATATATATATATATA [CACACA_site410]	9.28
TTGTTTCTACAATTTAATAAAATACGTTTTCAAAAA [XGTACX_negctrl_site377]	8.69
TACTCCTTAAATATATGTAAAGGAAGAAAAAAAAAA [XGTACX_negctrl_site306]	9.02
ACAATAAAAATAAAAAGTACAAATAAAAAAAATAAA [XGTACX_site6718]	9.62
AATATATGTTTAATTTCACACACAAATATACATTTT [CACACA_site9385]	9.57
ATATATATATATATATGTACACATATACGCTTTTTC [XGTACX_site3838]	9.24
TTTGAGATAAAAGACTGTACTTAGAATGTATAAAAA [XGTACX_site203]	9.15
AAAAAAAAAAAAAACTGTACCAAAAAGAATATATAC [XGTACX_site8345]	9.63
